Experimental findings from the supplement of paper PMC10126150 are described below.

Sequences with one replicate were seen in a single cluster, so their values are uncertain.

This data set has as its system ATP. Kind of data set: switch fluorescence ratio, 500 uM ATP over buffer (Cy3 cluster intensity, sum of 5 cycles each) (fold (ratio)); higher = stronger signal-on switching upon ATP binding; sequences stand for … in TCGTCGGCAGCGTCAGATGTGTATAAGAGACAGTTTTTTTTTTTTTTTTTTTTTTTTT…TC. As to conditions: aptamer strand: ATP DNA aptamer (quencher-CACCTGGGGGAGTATTGCGGAGGAAGG + anchor), 100 nM annealed; ATP concentration: 500 uM; one replicate. In a few lines: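 Five buffer/ATP imaging cycles were run on Cy3-labelled switching-strand clusters on a modified Illumina MiSeq flow-cell, with NaOH stripping and re-annealing between cycles. In each cycle, clusters annealed to 100 nM quencher-labelled ATP aptamer were imaged in selection buffer, then after 15 min with 500 uM ATP at 22 °C. Per cluster, the fluorescence ratio is summed target-cycle over summed buffer-cycle Cy3 intensity, averaged per switch-domain sequence. Only clusters within 100-1000 RFU were kept.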
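Also: ATP exposure 15 min at 22 °C before imaging.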

On to CTTGGCAACG, for which the switch fluorescence ratio stood at 1.04.

In the case of TCGCAAACG, the switch fluorescence ratio amounted to 1.21.

Consider GCCAGATGCA, for which the switch fluorescence ratio was 1.02.

For the sequence TACCGTTGAC, the switch fluorescence ratio came to 1.11.

As for GTTCTATCGT, the switch fluorescence ratio amounted to 1.03.

Consider TTGACCGA, for which the switch fluorescence ratio turned out to be 1.02.

Regarding AAGAGCACGG, the switch fluorescence ratio was 1.01.

In the case of CGGTTTAAGA, the switch fluorescence ratio worked out at 1.05.

For ATTGTATAAT, the switch fluorescence ratio came to 0.989.

For AAATCTCGGG, the switch fluorescence ratio was 0.983.

In the case of CAAGTTTCCG, the switch fluorescence ratio was determined as 0.971.

Consider AAGCCTAGGT, for which the switch fluorescence ratio was 1.02.

With CGGTCGTTCT, the switch fluorescence ratio amounted to 0.895.

Consider TAGGGAACAC, for which the switch fluorescence ratio stood at 2.08.

Turning to GGTGAAATT, the switch fluorescence ratio was 1.13.

For the sequence GTGAATCGCT, the switch fluorescence ratio was 0.947.

In the case of ACGATCAGGG, the switch fluorescence ratio amounted to 1.03.

In the case of AGAAAATCGG, the switch fluorescence ratio stood at 0.99.

For the sequence TTCCTTCATG, the switch fluorescence ratio is 1.

On to GCCTATTGTC, for which the switch fluorescence ratio worked out at 0.952.

For the sequence TATCAGGCC, the switch fluorescence ratio was 1.02.

On to CCTGTCTGCG, for which the switch fluorescence ratio was 1.09.

With CGGAGTACGT, the switch fluorescence ratio came to 1.05.

As for GCTTCCGTTT, the switch fluorescence ratio is 1.04.

Regarding AACAGCACTG, the switch fluorescence ratio was found to be 1.22.

For ATAACATTCC, the switch fluorescence ratio worked out at 2.14.

Take CTGAGGCGGG: the switch fluorescence ratio is 1.08.

On to GGGTCTGCAG, for which the switch fluorescence ratio is 0.945.

Regarding ATCCCATACC, the switch fluorescence ratio came out at 1.15.

Regarding ATGGCCCGGG, the switch fluorescence ratio was determined as 0.85.

Regarding CATTTAATGA, the switch fluorescence ratio came out at 1.

As to GGGATGAT, the switch fluorescence ratio came to 1.

With AGTCGGGCAC, the switch fluorescence ratio was determined as 1.01.

Regarding CGCTGATTGT, the switch fluorescence ratio was determined as 1.01.

For the sequence TGTTCACAGA, the switch fluorescence ratio was determined as 0.99.

In the case of CCCAGTTCCG, the switch fluorescence ratio was determined as 1.01.

As for CGCCCCTTTG, the switch fluorescence ratio came out at 1.12.

On to GGAGACGTAC, for which the switch fluorescence ratio is 1.23.

Turning to GGCCCTTCT, the switch fluorescence ratio turned out to be 1.22.

In the case of AAACTATTGT, the switch fluorescence ratio is 1.01.

Consider GGATAGATG, for which the switch fluorescence ratio stood at 1.03.

Regarding AGAACGTCAT, the switch fluorescence ratio is 1.

In the case of GCGGTGGGAC, the switch fluorescence ratio was 1.04.

As to GACTGGCCCT, the switch fluorescence ratio amounted to 1.

For TAGGGACACA, the switch fluorescence ratio was found to be 1.11.

Regarding CAATCAGCTG, the switch fluorescence ratio was found to be 1.01.

In the case of GGACTCGTTA, the switch fluorescence ratio was 0.935.

Turning to CCGGCCGTTT, the switch fluorescence ratio turned out to be 0.993.

As to TACCGCCGAA, the switch fluorescence ratio came out at 1.02.

On to TTTACTATCG, for which the switch fluorescence ratio is 0.998.

Turning to AGAACAATTT, the switch fluorescence ratio turned out to be 1.

Take GGCCGGCTC: the switch fluorescence ratio is 1.01.

Take CGTTATGCCC: the switch fluorescence ratio stood at 0.997.

In the case of TAACATGTGA, the switch fluorescence ratio amounted to 0.989.

In the case of CATCAGTGCC, the switch fluorescence ratio was determined as 0.985.

In the case of CTACTAATCA, the switch fluorescence ratio was determined as 1.

Regarding TCATTGTCTA, the switch fluorescence ratio stood at 1.02.

Regarding AGGGAAGTGG, the switch fluorescence ratio was determined as 0.991.

For TTCTCATGAA, the switch fluorescence ratio turned out to be 0.959.

For the sequence CACCGGTTTG, the switch fluorescence ratio came out at 0.998.

Consider CGAGTTCCGC, for which the switch fluorescence ratio stood at 1.13.

Turning to TTGTCCTATT, the switch fluorescence ratio was found to be 1.01.

As for ATCAGACCTA, the switch fluorescence ratio amounted to 1.08.

For GAGACTTTCG, the switch fluorescence ratio came to 1.11.

With TTTTATGGCC, the switch fluorescence ratio is 1.02.

With CCTGTGTGTT, the switch fluorescence ratio was 1.01.

As to AACCGACTAA, the switch fluorescence ratio amounted to 1.25.

With ACTACTTGTT, the switch fluorescence ratio was found to be 1.01.

With TTATAAAACG, the switch fluorescence ratio came to 0.97.

With ACCTTCGAGT, the switch fluorescence ratio stood at 1.14.

As for AAAATTAGTG, the switch fluorescence ratio is 0.979.

On to TTGCGGAGTG, for which the switch fluorescence ratio came out at 1.02.

As for GGGCCTCAAC, the switch fluorescence ratio was 1.01.

Regarding TCTCGTATCC, the switch fluorescence ratio was determined as 0.989.

Regarding GGCGTGAAAT, the switch fluorescence ratio was found to be 1.01.

In the case of AAAAGGTATG, the switch fluorescence ratio was found to be 1.03.

GCGTGTAGGA: the switch fluorescence ratio was 1.03.

Take ACATCTCCTG: the switch fluorescence ratio was found to be 1.02.

For the sequence GAGTGGCGGA, the switch fluorescence ratio came out at 1.

For TGAGAGGAAC, the switch fluorescence ratio turned out to be 0.923.

On to ATGAGTCCGA, for which the switch fluorescence ratio stood at 1.21.

In the case of GAAAACGGAG, the switch fluorescence ratio is 0.961.

In the case of CAAAAGTATA, the switch fluorescence ratio turned out to be 1.01.

As to GCGTTGTAAT, the switch fluorescence ratio is 0.975.

As to TACGATTGGG, the switch fluorescence ratio was found to be 0.971.

As for ATCAATAGCT, the switch fluorescence ratio was determined as 0.982.

For the sequence GAGAAACGAC, the switch fluorescence ratio worked out at 1.

Take TACAACAAAC: the switch fluorescence ratio is 1.06.

As to ATGCTTGATC, the switch fluorescence ratio was 1.07.

With TTAGATAGAG, the switch fluorescence ratio came to 0.998.

For the sequence GATAATTCCT, the switch fluorescence ratio was 1.

Consider AGATGTGGCG, for which the switch fluorescence ratio was found to be 0.967.

TCTGCGACAA: the switch fluorescence ratio turned out to be 1.39.

For the sequence AACACTTGAA, the switch fluorescence ratio came out at 1.02.

TGTGTGCCGA: the switch fluorescence ratio worked out at 1.05.

As for TGGACGGGAC, the switch fluorescence ratio was determined as 1.15.

ATCCGAGTTT: the switch fluorescence ratio was determined as 1.01.

In the case of CATTGTGTCG, the switch fluorescence ratio was 1.1.

As to CGATCAGACG, the switch fluorescence ratio came out at 1.07.

Turning to CGAGAAGGAG, the switch fluorescence ratio amounted to 0.964.

As for TGAATTCGAA, the switch fluorescence ratio was determined as 0.994.

On to TATGATGCCG, for which the switch fluorescence ratio stood at 0.967.

Regarding TATAGCGGGC, the switch fluorescence ratio was determined as 1.04.

Turning to ATTAATAATT, the switch fluorescence ratio amounted to 1.02.

On to ACAAAACGTG, for which the switch fluorescence ratio turned out to be 1.05.

AACTCCTCTT: the switch fluorescence ratio worked out at 1.42.

Turning to ATTGTGTAAT, the switch fluorescence ratio is 1.05.

With ATTAGGTGCG, the switch fluorescence ratio was found to be 0.946.

For ATAGATGAGA, the switch fluorescence ratio was found to be 0.955.

Take TGGCGGGAGT: the switch fluorescence ratio came to 1.05.

As for TGATGTGGGT, the switch fluorescence ratio was 0.98.

With TTCACTGGTA, the switch fluorescence ratio came to 1.04.

In the case of ACTTGGACAA, the switch fluorescence ratio turned out to be 1.06.

Consider AATGGGGCTC, for which the switch fluorescence ratio was determined as 1.02.

Turning to CTCGAGACGC, the switch fluorescence ratio came out at 1.06.

Consider AACCTTAAAA, for which the switch fluorescence ratio was found to be 1.05.

Turning to TCATGCTGTG, the switch fluorescence ratio is 1.02.

As for CTTAGACCGT, the switch fluorescence ratio is 0.989.

AGCGGCTCA: the switch fluorescence ratio was 1.02.

For the sequence TAACGACGCT, the switch fluorescence ratio was found to be 1.84.
